Measurements published in the supplement of paper PMC3334620.
Whole data set: some 33,000 sequences, median “E-score (-0.5 to 0.5)” near -0.054, cut for the highest 2% near 0.35. This is one part of the list.

Target: T1, Stb5 (UniProt P38699)
T1 sequence: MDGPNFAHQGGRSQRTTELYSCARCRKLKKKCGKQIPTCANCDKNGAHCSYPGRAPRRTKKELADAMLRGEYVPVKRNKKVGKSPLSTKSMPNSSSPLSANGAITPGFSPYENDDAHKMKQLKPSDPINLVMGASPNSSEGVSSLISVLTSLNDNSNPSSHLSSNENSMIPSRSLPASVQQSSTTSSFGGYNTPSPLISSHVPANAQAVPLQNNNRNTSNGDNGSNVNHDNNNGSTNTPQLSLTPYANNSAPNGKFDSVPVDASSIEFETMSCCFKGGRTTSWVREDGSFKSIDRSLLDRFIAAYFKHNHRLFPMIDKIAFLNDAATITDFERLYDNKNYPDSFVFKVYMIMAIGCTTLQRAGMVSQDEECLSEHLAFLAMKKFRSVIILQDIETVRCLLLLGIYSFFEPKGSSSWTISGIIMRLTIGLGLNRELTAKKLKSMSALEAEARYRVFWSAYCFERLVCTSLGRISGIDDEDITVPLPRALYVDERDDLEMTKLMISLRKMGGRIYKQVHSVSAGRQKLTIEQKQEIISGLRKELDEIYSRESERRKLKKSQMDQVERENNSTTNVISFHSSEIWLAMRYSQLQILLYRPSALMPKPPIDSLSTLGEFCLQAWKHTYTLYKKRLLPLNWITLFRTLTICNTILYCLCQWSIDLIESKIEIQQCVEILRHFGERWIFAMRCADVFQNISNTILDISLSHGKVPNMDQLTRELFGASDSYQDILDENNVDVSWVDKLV
Assay: PBM E-score (8-mer binding enrichment) (E-score (-0.5 to 0.5)); higher = stronger / more preferred TF binding; most listed sequences are background and not binding sites
Settings: protein concentration: 200 nM; construct: GST-full length
In short: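 E-scores (a modified Wilcoxon-Mann-Whitney statistic) were assigned by the Universal PBM Analysis Suite to every ungapped eight-base word pooled with its reverse complement. The input came from universal all-10-mer Agilent arrays made double-stranded by primer extension and probed with GST-tagged yeast transcription factors at about 100-200 nM. Fluorescent anti-GST detected bound protein, and masliner normalised the scans.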

| Sequence | PBM E-score |
| --- | --- |
| ACAATAAG | 0.0543 |
| CAAAAAAC | -0.0944 |
| GACAAACC | -0.00903 |
| AGTATAGA | 0.0183 |
| AATGTACG | -0.194 |
| CCTTCTAC | -0.12 |
| AAGACAAT | -0.0674 |
| ACAGTTCC | 0.0786 |
| GTGCTTCA | -0.109 |
| CGCGGCCG | 0.191 |
| CTTCTTGC | -0.122 |
| ACGCCCCA | -0.22 |
| CGCCAGCC | 0.206 |
| ACACTGGC | -0.298 |
| GGGAAGCA | -0.0216 |
| CGGCGGAC | 0.377 |
| CCGGGAGA | 0.0459 |
| CAATTTAC | 0.127 |
| GTCTTAAC | 0.0408 |
| CCCCAGTA | -0.0689 |
| CCGAAACG | 0.275 |
| CCAAGAGC | -0.177 |
| ATAGGCTC | -0.0838 |
| CGTAGTGC | 0.174 |
| CGAGAACA | -0.0167 |

| Sequence | PBM E-score |
| --- | --- |
| GATATGCC | -0.0103 |
| CCGAGCAA | 0.0202 |
| CAGATAGA | -0.213 |
| CCGCACCA | 0.199 |
| GGAAGCCA | -0.138 |
| CCGTGGTC | 0.0916 |
| TGCCGGAA | 0.179 |
| AAATTCCG | 0.251 |
| GATCCACA | 0.0127 |
| GCTGTTTA | 0.0813 |
| TCACACCA | -0.219 |
| GACGACTA | -0.218 |
| ACACTATC | -0.122 |
| AGCCGGTC | 0.0141 |
| CAGAATGC | 0.0745 |
| CCTCTCCA | -0.3 |
| ACGGGTGA | 0.0646 |
| CGTCTTCA | 0.037 |
| GCCCACGC | -0.298 |
| AAATGTAC | -0.0592 |
| ACGAGTCA | -0.213 |
| CATAATTC | 0.0212 |
| CGAAGAAA | -0.0335 |
| TAAACTAA | 0.0107 |
| AGTGATCC | -0.0706 |

| Sequence | PBM E-score |
| --- | --- |
| TCACTCAA | -0.211 |
| AAACGGGC | 0.19 |
| ATATTTCG | 0.0939 |
| AAGTATGC | -0.0425 |
| GCTTACCC | -0.0687 |
| GCTTAATA | -0.0753 |
| ATGCCGTC | 0.352 |
| ATGGTCTG | -0.239 |
| CATTCGAA | -0.0861 |
| ATTCGTTG | -0.0965 |
| GATGTAAC | 0.0613 |
| GATGGGAC | 0.0679 |
| TCAAAACA | -0.0946 |
| CTTTTCGC | 0.113 |
| TCCGACAA | 0.324 |
| CCTGCCAC | -0.224 |
| TATAAGAA | -0.0144 |
| CGGGTGAG | 0.0766 |
| ATGCTCTA | 0.0757 |
| AATTTGTC | -0.0381 |
| CTTATAAG | 0.107 |
| GAATGAAA | 0.0556 |
| ACTAGATG | -0.193 |
| CGGTGTCA | 0.471 |
| AACACTCC | 0.107 |

| Sequence | PBM E-score |
| --- | --- |
| AAAGCTCC | 0.276 |
| CTCCGACC | 0.375 |
| ACCCGCTG | 0.137 |
| CCCCGGCG | 0.328 |
| AACGGGTG | 0.155 |
| AGCTAAGC | -0.136 |
| CAACTCCG | 0.342 |
| ATCCGCAA | 0.00079 |
| CTCTTGCC | -0.148 |
| AACGTAGA | -0.159 |
| CAGCAACA | -0.0193 |
| AGGCACCC | -0.149 |
| CCGGGCAC | 0.246 |
| ATCAATCG | -0.122 |
| CGATGGTC | -0.118 |
| ATTCGGAG | 0.201 |
| CCTTGTAG | -0.188 |
| GGGCCCGA | 0.193 |
| CATAATGA | -0.0551 |
| ATTGTGCA | -0.144 |
| CTCTCAAG | -0.254 |
| GAAGTCAC | -0.0552 |
| AGCTCTTC | 0.0182 |
| ATCGACTG | 0.0171 |
| CTCCCCCC | -0.219 |

| Sequence | PBM E-score |
| --- | --- |
| TATTTACA | -0.157 |
| CCTGTCCG | 0.0505 |
| CGGGAGCC | 0.00363 |
| GGAAGGCC | 0.238 |
| GTGCAAAC | 0.193 |
| CATATGCA | -0.19 |
| CCTGCTTC | -0.0253 |
| GTGTAGCA | -0.172 |
| ACCCAAAG | -0.113 |
| CAAGAGTG | -0.186 |
| CGTCAACA | -0.00929 |
| AGGTGATA | 0.164 |
| AGCTTAGA | -0.106 |
| TACGAAGA | -0.204 |
| AGCTTACT | -0.285 |
| ACATATTG | -0.171 |
| AAGGCAGC | -0.118 |
| CCAGAAAG | -0.0818 |
| CACCCGGG | 0.187 |
| ACCCACAA | -0.14 |
| GACTGACC | -0.0287 |
| AGAGCAGC | -0.242 |
| CAACTCGG | 0.0103 |
| TCCATTCA | -0.163 |
| GGCTGCTA | -0.0785 |

| Sequence | PBM E-score |
| --- | --- |
| AGTGCCAT | -0.0439 |
| GACCAATA | 0.0169 |
| CCGCCCTC | 0.272 |
| GCACTAGC | 0.137 |
| CCGTCGGA | 0.37 |
| CAAGTTTC | -0.0674 |
| ACCATGCT | -0.14 |
| CTAGCTGC | -0.0672 |
| CCTTATTA | -0.0929 |
| AAGGCATT | -0.00479 |
| ACCCACTC | -0.0808 |
| CCCCAGAG | -0.174 |
| AATTGACT | -0.184 |
| CAGGACTC | -0.196 |
| AAAGGTGT | 0.146 |
| CACGTACC | -0.0861 |
| ACCAGCCA | -0.248 |
| ATCGGCCA | 0.179 |
| GACGACGC | -0.029 |
| CGTGTCAC | -0.106 |
| ATACGTCA | -0.00151 |
| AGCGGTCG | 0.22 |
| ACCTCCCA | -0.199 |
| ATGTTCTA | -0.0932 |
| AAACTTGC | 0.118 |

| Sequence | PBM E-score |
| --- | --- |
| GTTCACCA | -0.133 |
| AATTCATC | 0.0312 |
| AGCCCCAG | -0.162 |
| AATGAGCA | -0.191 |
| GAAAACCC | 0.278 |
| CGTTCTTC | -0.00265 |
| GCGAAGAC | 0.163 |
| GATAATAA | 0.189 |
| CGGAAGTA | 0.352 |
| CGGGCATC | 0.122 |
| GATATTGC | 0.155 |
| CCCCACCG | 0.221 |
| GCCGAAGC | 0.215 |
| AGGTGCCG | 0.179 |
| CAGTAAGC | -0.133 |
| CGCTAAAC | 0.139 |
| ATGCCCAG | -0.192 |
| CCGTAGAG | 0.0676 |
| AGGAGTAC | -0.166 |
| ACCAATGA | -0.0818 |
| CACCATTC | -0.283 |
| AATTTTAT | 0.292 |
